Drawing on paper PMC9911399, “Two distinct binding modes provide the RNA-binding protein RbFox with extraordinary sequence specificity”, this text covers binding signal for 20 molecules.

First the molecules themselves.
T1: RBFOX1 RRM RbFoxmut (Fox-RRM*) (Homo sapiens, UniProt Q9NWB1 109-208, R118D;E147R;N151S;E152T)
T1 sequence: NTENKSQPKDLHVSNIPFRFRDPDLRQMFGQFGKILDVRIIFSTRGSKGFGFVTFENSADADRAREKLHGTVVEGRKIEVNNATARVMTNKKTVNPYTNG

B1: UUUCAGC (DNA:RNA)
RNA: GGGAGACCGGAAUUCAGAUUGUCCUUUCAGCUUAAAUCCCGUCGUAGCCACCA
DNA 1: CAATCTGAATTCCGGTCTCCC
DNA 2: TGGTGGCTACGACGGGATT
B2: AGCAGGU (DNA:RNA)
RNA: B1 RNA with U25A, U26G, U27C, C28A, A29G, C31U
DNA 1: CAATCTGAATTCCGGTCTCCC
DNA 2: TGGTGGCTACGACGGGATT
B3: CAUUCGA (DNA:RNA)
RNA: B1 RNA with U25C, U26A, C28U, A29C, C31A
DNA 1: CAATCTGAATTCCGGTCTCCC
DNA 2: TGGTGGCTACGACGGGATT
B4: AAAAGAC (DNA:RNA)
RNA: B1 RNA with U25A, U26A, U27A, C28A, A29G, G30A
DNA 1: CAATCTGAATTCCGGTCTCCC
DNA 2: TGGTGGCTACGACGGGATT
B5: CUGGCGA (DNA:RNA)
RNA: B1 RNA with U25C, U27G, C28G, A29C, C31A
DNA 1: CAATCTGAATTCCGGTCTCCC
DNA 2: TGGTGGCTACGACGGGATT
B6: CAGCACU (DNA:RNA)
RNA: B1 RNA with U25C, U26A, U27G, G30C, C31U
DNA 1: CAATCTGAATTCCGGTCTCCC
DNA 2: TGGTGGCTACGACGGGATT
B7: GUCCACA (DNA:RNA)
RNA: B1 RNA with U25G, U27C, G30C, C31A
DNA 1: CAATCTGAATTCCGGTCTCCC
DNA 2: TGGTGGCTACGACGGGATT
B8: GUUUAAA (DNA:RNA)
RNA: B1 RNA with U25G, C28U, G30A, C31A
DNA 1: CAATCTGAATTCCGGTCTCCC
DNA 2: TGGTGGCTACGACGGGATT
B9: UCAAGCG (DNA:RNA)
RNA: B1 RNA with U26C, U27A, C28A, A29G, G30C, C31G
DNA 1: CAATCTGAATTCCGGTCTCCC
DNA 2: TGGTGGCTACGACGGGATT
B10: GUUUUAG (DNA:RNA)
RNA: B1 RNA with U25G, C28U, A29U, G30A, C31G
DNA 1: CAATCTGAATTCCGGTCTCCC
DNA 2: TGGTGGCTACGACGGGATT
B11: GGACAUU (DNA:RNA)
RNA: B1 RNA with U25G, U26G, U27A, G30U, C31U
DNA 1: CAATCTGAATTCCGGTCTCCC
DNA 2: TGGTGGCTACGACGGGATT
B12: ACACACC (DNA:RNA)
RNA: B1 RNA with U25A, U26C, U27A, G30C
DNA 1: CAATCTGAATTCCGGTCTCCC
DNA 2: TGGTGGCTACGACGGGATT
B13: AGUAGGG (DNA:RNA)
RNA: B1 RNA with U25A, U26G, C28A, A29G, C31G
DNA 1: CAATCTGAATTCCGGTCTCCC
DNA 2: TGGTGGCTACGACGGGATT
B14: GAAUCCU (DNA:RNA)
RNA: GGGAGACCGGAAUUCAGAUUGUCCGAAUCCUUUAAAUCCCGUCGUAGCCACCA
DNA 1: CAATCTGAATTCCGGTCTCCC
DNA 2: TGGTGGCTACGACGGGATT
B15: UACAUUA (DNA:RNA)
RNA: B14 RNA with G25U, A27C, U28A, C29U, C30U, U31A
DNA 1: CAATCTGAATTCCGGTCTCCC
DNA 2: TGGTGGCTACGACGGGATT
B16: GCCUUGG (DNA:RNA)
RNA: B14 RNA with A26C, A27C, C29U, C30G, U31G
DNA 1: CAATCTGAATTCCGGTCTCCC
DNA 2: TGGTGGCTACGACGGGATT
B17: CAAUGCA (DNA:RNA)
RNA: B14 RNA with G25C, C29G, U31A
DNA 1: CAATCTGAATTCCGGTCTCCC
DNA 2: TGGTGGCTACGACGGGATT
B18: AUGGCUG (DNA:RNA)
RNA: B14 RNA with G25A, A26U, A27G, U28G, C30U, U31G
DNA 1: CAATCTGAATTCCGGTCTCCC
DNA 2: TGGTGGCTACGACGGGATT
B19: UUGGCCA (DNA:RNA)
RNA: B14 RNA with G25U, A26U, A27G, U28G, U31A
DNA 1: CAATCTGAATTCCGGTCTCCC
DNA 2: TGGTGGCTACGACGGGATT
B20: UACAUCU (DNA:RNA)
RNA: B14 RNA with G25U, A27C, U28A, C29U
DNA 1: CAATCTGAATTCCGGTCTCCC
DNA 2: TGGTGGCTACGACGGGATT

Where a chain is given by its changes, count along the chain named. Some of the results follow.

The assay deals with T1, RBFOX1 RRM RbFoxmut (Fox-RRM*). Kind of assay: EMSA; HiTS-Eq, 1 nM pool, 10 min; buffer printed only for the single-RNA assays: 10 mM Tris pH 7.5, 150 mM NaCl, 3.4 mM EDTA, 0.001% NP-40, 30 C. As to conditions: tags: His6 N-terminal (pET28a); label: 5' 32P. Summed up:
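Purified RbFox RRM (wild type or mutant) was equilibrated for 10 min in 50 µL with 1 nM of a 5′-radiolabelled pool of RNA with 7 randomized nucleotides, its flanks annealed to DNA oligonucleotides, across increasing protein concentrations. Free RNA was separated by 8% native PAGE, excised, reverse-transcribed, PCR-barcoded and sequenced on an Illumina HiSeq 2500. Relative association constants came from read-count changes of each variant against the control reaction, normalised to the cognate motif.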
(A gel shift assay detects complexes by their altered migration in electrophoresis.)
Regarding B1, the binding signal was 0.0933 KA relative to UGCAUGU.

Turning to B2, the binding signal was 0.117 KA relative to UGCAUGU.

Take B3: the binding signal is 0.0833 KA relative to UGCAUGU.

Regarding B4, the binding signal is 0.0642 KA relative to UGCAUGU.

With B5, the binding signal is 0.083 KA relative to UGCAUGU.

On to B6, for which the binding signal was 0.0877 KA relative to UGCAUGU.

With B7, the binding signal is 0.113 KA relative to UGCAUGU.

On to B8, for which the binding signal was 0.121 KA relative to UGCAUGU.

Regarding B9, the binding signal was 0.123 KA relative to UGCAUGU.

Consider B10, for which the binding signal was 0.121 KA relative to UGCAUGU.

Turning to B11, the binding signal is 0.0676 KA relative to UGCAUGU.

On to B12, for which the binding signal was 0.0425 KA relative to UGCAUGU.

On to B13, for which the binding signal is 0.0759 KA relative to UGCAUGU.

With B14, the binding signal is 0.171 KA relative to UGCAUGU.

In the case of B15, the binding signal was 0.0825 KA relative to UGCAUGU.

In the case of B16, the binding signal was 0.501 KA relative to UGCAUGU.

Consider B17, for which the binding signal is 0.172 KA relative to UGCAUGU.

As for B18, the binding signal was 0.333 KA relative to UGCAUGU.

Turning to B19, the binding signal is 0.116 KA relative to UGCAUGU.

For B20, the binding signal was 0.0705 KA relative to UGCAUGU.
